From publication PMC12136788 come the findings set out here.

Some of the results follow.

T1: UNK ZnF1-3 (human, UniProt Q9C0B0 31-174)
T1 sequence: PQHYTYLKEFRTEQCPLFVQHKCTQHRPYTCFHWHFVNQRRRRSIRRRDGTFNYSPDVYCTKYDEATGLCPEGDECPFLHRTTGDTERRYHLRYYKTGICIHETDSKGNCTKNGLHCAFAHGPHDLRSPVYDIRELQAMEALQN

B1: chr17:65740002:65740003:+_ENSG00000130935_ENST00000581375|hu_hu|hu_hu_hu_mus_False|1_1 (ssRNA)
RNA: GGGAGUUCUACAGUCCGACGAUCAACAAAUCUUUCUUCCCUGGACGAACAGGAAGAUUCAUAUUAAAAAAAAUAUAUAUCCAUCAAGUUAGGUGUGGUGGCCACACCUUUACUCCCAGCACUUUGGGAGGUGGAUCCUCUAUUCAACAGAGGAUUGAGCAUCA
B2: chr10:112654219:112654220:+_ENSG00000150593_ENST00000280154|hu_hu|motif|central (ssRNA)
RNA: GGGAGUUCUACAGUCCGACGAUCCCAAAGGGACUUUAAUAAAUCCAAAAUCAUCUUAAAUGUACUUUCUCCAGUUGACUCGGAAACCAUUAUAAUAGCUUCAUAUACAAGCUCAUGGUGAAAAUGAGGUACUUCCAGUUCCUUCAACAGAGGAUUGAGCAUCA
B3: chr4:13604834:13604835:-_ENSG00000038219_ENST00000040738|hu_mus|FALSE|FALSE (ssRNA)
RNA: GGGAGUUCUACAGUCCGACGAUCCCUAGAGAGUGCUUUCCGACUCACUUCAGAGUCUACACUUACUUCCUGGGCUCCUCGCUGAAUUGGCUCUCUUUCCCUAGGAGCUGCUUUUGAUGGGUUACCUUGGCUAUGUACUUUCUUCAACAGAGGAUUGAGCAUCA
B4: chr15:37385894:37385895:-_ENSG00000134138_ENST00000382766|hu_hu|FALSE|FALSE (ssRNA)
RNA: GGGAGUUCUACAGUCCGACGAUCGCUGCCGUCUCUUUCAUCAAUGACGAGGUCGAUGGGCAUUUUCCCCUUCAAACAGCUAAUGUAUCGGUGGCAGAAGUUAUCGCACAGUUCGUGGACCUUUUCUAACUCCAAAAGAUGAAACAACAGAGGAUUGAGCAUCA
B5: 97535920_97536194_1999_3pUTR_ENSMUSG00000038437_ENSMUST00000044730|mouse|control|control (ssRNA)
RNA: GGGAGUUCUACAGUCCGACGAUCGUGUGGCUGCUCUCCGCUUGGGUGAGGAGGGGGUUAACAGUGCCCAUGGGGGUUCCAAAGAUGUGGGAUGAAGGGAGGCUGAAGGUUGAGCCAGCCAGAGAAAACACCUGAGUGGUGGAGCAACAGAGGAUUGAGCAUCA
B6: chr5:145543945:145543946:-_ENSG00000133706_ENST00000545646|hu_hu|hu_hu_hu_mus_True|18_68 (ssRNA)
RNA: GGGAGUUCUACAGUCCGACGAUCCUGAACGGCCAGUGGUGGGAAAUAAUCAAGCCAGUGCUCUGCUUCAGAAAAUUUCACUAUGUCGUCAUCAGAGAGCCCAAGGGAUUUCAUAAUGCCCCACUGGUACUUAGAAGAUCCUGCCAACAGAGGAUUGAGCAUCA

This experiment concerns the target T1, UNK ZnF1-3. Description: nsRBNS (natural sequence RNA bind-n-seq); RBNS binding buffer (assumed for nsRBNS): 25 mM Tris pH 7.5, 150 mM KCl, 3 mM MgCl2, 0.01% Triton X-100, 500 ug/ml BSA, 20 U/ml SUPERase-In, 4 C; UNK is unkempt and MSI1 is Musashi-1; names of the RNAs are library labels; protein concentration not given here; high values mean tight binding.
As to B1, the binding signal amounted to 1.12 enrichment R. The figure for B2 is 1.12 enrichment R. Consider B3, for which the binding signal is 0.399 enrichment R. Molecule B4 had a binding signal of 0.858 enrichment R. In the case of B5 it was 2.47 enrichment R; in that of B6, 1.26 enrichment R.
